In PubChem BioAssay AID1460 (National Center for Advancing Translational Sciences (NCATS), 2008):
The campaign covered roughly 270,000 compounds. About 5,800 (2.1%) were called active. This list was built around the results that the source calls inconclusive (neither active nor inactive); the mix of calls is not that of the screen. Calls follow the shape of the dose curve; as a rule, active = well fitted inhibition curve with a large enough effect; inconclusive = small, poorly fitted or top-dose-only effect; inactive = flat fitted curve, though single readings scatter. Potencies beside an inconclusive call are fits to weak or partial responses and may not hold up.

What follows are compounds tested against Microtubule-associated protein tau (Homo sapiens) (UniProt P10636) (assay: qHTS for Inhibitors of Tau Fibril Formation, Thioflavin T Binding). Conditions: recombinant tau K18 P301L (four-repeat tau fragment), heparin-induced fibrillization, ThT fluorescence; series mostly up to 57.4 µM; activity, negative = inhibition: at the top concentration.
Chain of UniProt P10636 (P10636 whole entry, looked up, the tested form may be a part): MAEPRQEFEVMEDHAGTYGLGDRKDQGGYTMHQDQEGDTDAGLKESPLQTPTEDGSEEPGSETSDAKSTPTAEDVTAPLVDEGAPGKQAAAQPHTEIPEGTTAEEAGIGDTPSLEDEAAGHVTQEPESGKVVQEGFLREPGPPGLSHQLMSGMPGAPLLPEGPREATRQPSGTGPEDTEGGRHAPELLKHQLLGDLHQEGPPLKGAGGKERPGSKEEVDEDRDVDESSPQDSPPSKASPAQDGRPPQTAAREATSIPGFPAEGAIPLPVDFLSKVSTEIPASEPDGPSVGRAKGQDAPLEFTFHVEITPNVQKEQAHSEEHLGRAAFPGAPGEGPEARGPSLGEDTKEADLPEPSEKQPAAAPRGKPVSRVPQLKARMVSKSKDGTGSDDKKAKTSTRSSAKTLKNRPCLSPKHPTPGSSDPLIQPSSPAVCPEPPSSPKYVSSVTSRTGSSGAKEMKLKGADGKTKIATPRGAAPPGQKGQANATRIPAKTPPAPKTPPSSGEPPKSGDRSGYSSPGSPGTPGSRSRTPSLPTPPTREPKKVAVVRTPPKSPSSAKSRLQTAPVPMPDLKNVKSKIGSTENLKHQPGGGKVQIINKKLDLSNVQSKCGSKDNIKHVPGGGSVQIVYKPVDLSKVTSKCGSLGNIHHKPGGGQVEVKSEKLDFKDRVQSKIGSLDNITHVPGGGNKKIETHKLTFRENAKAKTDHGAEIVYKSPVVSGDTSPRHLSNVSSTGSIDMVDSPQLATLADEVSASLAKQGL
Method in brief: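 K18 P301L tau (15 uM + 0.24 uM Alexa 594-tagged), heparin 20 uM, NaOAc pH 7, 6 h 37 C; ThT 30 uM, 1 h RT, ex 450/em 510 nm.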
% is scaled to controls: 0 for no effect and ±100 for the full control effect; potency is read from the fitted curve at half-maximal effect; tags tell the direction and shape of the fitted curve.
Also: nearly all actives have a fitted effect of over 55% in size.

Structure (SMILES)	Potency	activity, negative = inhibition
CC(C)CNc1cc(N2CCCC2)ccc1[N+](=O)[O-]	inconclusive: 7.94 µM [inhibitor, partial curve]	–
O=C(NCC12CC3CC(CC(C3)C1)C2)c1cc2nc(-c3ccc(F)cc3)cc(C(F)(F)F)n2n1	–	inactive: -13%
COc1cccc(-c2ccc3c(N)c(C(=O)Nc4ccc(C)c(F)c4)sc3n2)c1	inconclusive: 0.631 µM [inhibitor, full curve]	–
CCOc1cc(C2c3c(-c4ccccc4O)n[nH]c3C(=O)N2CCc2ccccc2)ccc1O (stereo unspecified)	–	inactive: 4.28%
CNC(=O)COc1ccc(Nc2nnc(-c3ccc(C)c(S(=O)(=O)NC(C)(C)C)c3)c3ccccc23)cc1	inconclusive: 8.91 µM [inhibitor, full curve, poor fit]	–
CC(OC(=O)CNC(=O)c1ccco1)C(=O)N(C)c1ccccc1 (stereo unspecified)	–	inactive: -5.59%
COc1ccccc1NC(=S)NNC(=O)c1ccc(Cl)cc1Cl	inconclusive: 22.4 µM [inhibitor, single point]	–
S=C1NC(c2cccs2)=CC(c2ccc(Br)cc2)N1 (stereo unspecified)	inconclusive: 11.2 µM [inhibitor, partial curve, poor fit]	–
O=C(CSc1nnc(Nc2ccccc2F)s1)Nc1cccc(S(=O)(=O)N2CCCCC2)c1	–	inactive: -5.46%
Cc1ccc(C(=O)COC(=O)CCC(=O)Nc2ccc(Oc3ccccc3)cc2)cc1C	inconclusive: 17.8 µM [inhibitor, single point]	–
COc1ccc(/C=C/C(=O)Nc2ccc3c(c2)OCCO3)cc1OC	inconclusive: 2.82 µM [inhibitor, full curve]	–
CCCC(=O)N1CCN(c2ccc(NC(=S)NC(=O)c3cccc(C)c3)cc2)CC1	active: 8.91 µM	–
Cc1cccc(C(=O)NNC(=O)C(=O)NC(C)(C)C)c1	–	inactive: -4.29%
CC(C)(C)C1C/C(=C/c2ccccn2)C(=O)/C(=C/c2ccccn2)C1 (stereo unspecified)	active: 11.2 µM	–
O=C(N/N=C\c1cccc(OC(=O)c2ccco2)c1)c1ccc2c(c1)OCO2	inconclusive: 31.6 µM [inhibitor, single point]	–
COc1ccc2nc(NC3=NCCC3)sc2c1	–	inactive: -11.9%
COc1ccc(C(=O)c2ccc(N3CCOCC3)cc2)c(OC)c1	inconclusive: 7.08 µM [inhibitor, single point]	–
Cc1cc(/C=N/NC(N)=S)c(C)n1-c1ccc(Cl)c(Cl)c1	inconclusive: 12.6 µM [inhibitor, partial curve, poor fit]	–
Cc1ccc2nc(Cl)c(/C=N/NC(=O)c3ccccc3O)cc2c1	inconclusive: 12.6 µM [inhibitor, partial curve]	–
COC(=O)C1=COC(C)C2CN3CCc4c([nH]c5cc(OC)c(OC)cc45)C3CC12 (stereo unspecified)	inconclusive: 15.8 µM [inhibitor, partial curve]	–
CCOC(=O)c1c(NC(=O)c2cc(-c3ccc(OC)cc3)on2)sc(C)c1C	inconclusive: 35.5 µM [inhibitor, single point]	–
O=c1c(O[C@@H]2O[C@H](CO)[C@@H](O)[C@H](O)[C@H]2O)c(-c2ccc(O)c(O)c2)oc2cc(O)cc(O)c12	inconclusive: 15.8 µM [inhibitor, partial curve]	–
COC(=O)c1cc(C(=O)Nc2ccc(S(=O)(=O)NC(C)(C)C)cc2)cc([N+](=O)[O-])c1	inconclusive: 1 µM [inhibitor, single point]	–
COc1ccc(C(=O)NC(=S)Nc2nnn(C)n2)cc1	–	inactive: -17.7%
O=C1C=CC2=C3c4cc(O)c(O)cc4C[C@@]3(O)COC2=C1	active: 8.91 µM	–
O=C(COc1ccccc1)Nc1ccccc1C(=O)OCc1cc(=O)n2nc(C3CC3)sc2n1	–	inactive: 1.28%

Structure (SMILES)	Potency	activity, negative = inhibition
CN(C)C(=O)c1ccc(NC(=O)c2cncc(Br)c2)cc1	–	inactive: -1.59%
CC(C)c1ccc2nc3sc(C(=O)N4CCc5ccccc5C4)c(N)c3cc2c1	active: 12.6 µM	–
Cc1ccc(C(=O)CC2(O)C(=O)N(CN3CCOCC3)c3ccccc32)cc1 (stereo unspecified)	–	inactive: -2.36%
O=C(O)Cc1ccc(C(=O)c2ccc(Cl)cc2)s1	inconclusive: 17.8 µM [inhibitor, single point]	–
CCOC(=O)c1ccc(Nc2cc(-c3ccccc3)nc(C)n2)cc1	inconclusive: 1.58 µM [inhibitor, full curve, poor fit]	–
CCC(C)OC(=O)C1=C(C)OC23OC(N)=C(C#N)C12C(=O)c1ccccc13 (stereo unspecified)	inconclusive: 35.5 µM [inhibitor, single point]	–
COc1ccccc1-n1cc(-c2ccc(Cl)cc2)[nH]c1=O	–	inactive: -6.79%
COc1ccc(C)cc1S(=O)(=O)N(C)CC(=O)NCc1ccco1	inconclusive: 31.6 µM [inhibitor, single point]	–
CN(C)c1nc(C(=O)NN)nc(N(C)C)n1	–	inactive: -15.6%
Cc1ccc(Cl)cc1N1CCN(C(=O)C2CCN(Cc3nc(-c4cccc(Cl)c4)oc3C)CC2)CC1	inconclusive: 35.5 µM [inhibitor, single point]	–
Cc1ccc(NCCc2ccc(C)nc2)cc1	–	inactive: -21%
CCc1ccccc1NC(=O)COc1ccc2c(=O)c(Oc3cc(C)ccc3C)coc2c1	–	inactive: 3.17%
O=C1C[C@@H](O)[C@@H](O)[C@H]2[C@@H]3C(=O)N(C4CCCCC4)C(=O)[C@@H]3CC[C@H]12	inconclusive: 1.12 µM [inhibitor, partial curve]	–
CC1=C([N+](=O)[O-])C(c2ccccc2)C2=C(N1)c1ccccc1C2=O (stereo unspecified)	active: 15.8 µM	–
Cc1ccccc1C(=O)Nc1nnc(S(=O)(=O)N2CCCCCC2)s1	active: 14.1 µM	–
CCCCc1nn2c(=O)cc(COC(=O)c3ccc(NC(=O)C4CCCCC4)cc3)nc2s1	–	inactive: 13%
CN1CCN(c2ccc(S(=O)(=O)Nc3ccccc3)cc2[N+](=O)[O-])CC1	–	inactive: -11.2%
Cc1ccc(Cn2c(=O)n(Cc3ccccc3Cl)c(=O)c3ccccc32)cc1	–	inactive: 0.536%
CCOc1ccc(NC(=O)CC2C(=O)N(c3cccc(C)c3)C(=O)N2Cc2cccnc2)cc1 (stereo unspecified)	–	inactive: 14.8%
O=C1CC(c2ccco2)CC(O)=C1C=Nc1cc(Cl)cc(Cl)c1 (stereo unspecified)	inconclusive: 31.6 µM [inhibitor, single point]	–
COC(=O)C12CC3(CCC4C5C(C(OCc6ccccc6)C41)C52)OCCO3 (stereo unspecified)	–	inactive: -9.96% [at 11.5 µM]
Clc1ccc(-n2cc(-c3ccc(Br)cc3)[n+]3c2CCCCC3)cc1	–	inactive: -3.69%
N#C/C(=C\c1ccc(F)c(Cl)c1)S(=O)(=O)c1ccccn1	–	inactive: -4.23%
COc1ccc(/C=c2\s/c(=C/C(=O)c3ccc(C)cc3)[nH]c2=O)c(OC)c1	inconclusive: 10 µM [inhibitor, partial curve]	–
Cc1ccc(-n2c(-c3nn(C)cc3Cl)n[nH]c2=S)cc1	–	inactive: -6.85%
COc1cccc(C(=O)Nc2cc(Cl)c(O)c(Cl)c2)c1	inconclusive: 15.8 µM [inhibitor, partial curve, poor fit]	–

Structure (SMILES)	Potency	activity, negative = inhibition
c1ccc2c3c([nH]c2c1)C(C1CCCCC1)N(Cc1ncc[nH]1)CC3 (stereo unspecified)	inconclusive: 39.8 µM [inhibitor, single point]	–
COC(=O)CN1C(=O)C(O)(CC(=O)c2ccc(C)cc2)c2cc(Br)ccc21 (stereo unspecified)	–	inactive: 11.1%
COc1ccccc1-n1cnc2cc(NCc3ccccc3O)ccc21	inconclusive: 11.2 µM [inhibitor, partial curve]	–
CCOc1cc(C(=S)N2CCOCC2)ccc1OS(=O)(=O)c1ccccc1[N+](=O)[O-]	–	inactive: -12.2%
COc1ccc(/C(C)=N/Nc2ccccc2Cl)c(O)c1	inconclusive: 25.1 µM [inhibitor, partial curve]	–
Cc1ccc(OCC(=O)Nc2ccccc2N2CCCC2)c(C)c1	inconclusive: 14.1 µM [inhibitor, single point]	–
C=CCNC(=S)N(CC=C)C1CCS(=O)(=O)C1 (stereo unspecified)	–	inactive: 5.84%
O=C(CCN1C(=O)/C(=C/C=C/c2ccccc2)SC1=S)Nc1nc2ccccc2s1	active: 3.55 µM	–
COc1ccc(/C=C/C(=O)NCCn2c(C)cc3ccccc32)cc1OC	inconclusive: 15.8 µM [inhibitor, partial curve]	–
O=C(NCCCN1CCCCCC1)C(c1ccccc1)C1CCCCC1 (stereo unspecified)	–	inactive: -1.07%
O=C(CSc1nnc(-c2ccccc2)n1-c1ccc(Cl)cc1)NNC(=S)Nc1ccccc1	–	inactive: 6.12%
Cc1[nH]c2ccccc2c1C(c1ccncc1)N1CCN(c2ccc(F)cc2)CC1 (stereo unspecified)	inconclusive: 15.8 µM [inhibitor, partial curve]	–
Cc1ccc(C)c(NC(=S)N/N=C2/CCCCc3ccccc32)c1	–	inactive: -2.72%
CC1(C)CC(=O)C(CC2CCCCC2=O)C(=O)C1 (stereo unspecified)	–	inactive: 8.48%
COc1ccc(CC(=O)N2CCN=C2SCc2ccc([N+](=O)[O-])cc2)cc1	inconclusive: 10 µM [inhibitor, partial curve]	–
COc1ccc(N2CCN(C(=O)c3oc4ccccc4c3NC(=O)c3ccccc3OC)CC2)cc1	inconclusive: 14.1 µM [inhibitor, partial curve]	–
Cn1c(-c2ccc(F)cc2)cnc1NCc1ccc(F)cc1	–	inactive: 7.01%
CCCn1nnc(NC(=O)c2ccc(Br)cc2)n1	–	inactive: -7.39%
COc1ccc(-c2nc3sc(CCNC(=O)C(=O)Nc4c(C)cccc4C)c(C)n3n2)cc1	–	inactive: 2.24%
Cc1ccc(C2=CC(c3ccc(N(C)C)cc3)n3nnnc3N2)cc1 (stereo unspecified)	inconclusive: 14.1 µM [inhibitor, partial curve]	–
O=Cc1ccc(-n2cccn2)cc1	–	inactive: -8.78%
Cc1c(C(=O)N2CCC(C)CC2)c(S(=O)(=O)N2CCN(c3ccc(Cl)cc3)CC2)c(C)n1C	–	inactive: -10.2%
O=C1C(C2=C(O)c3ccccc3C2=O)=Nc2ccccc21	active: 7.08 µM	–
O=C(OCc1ccc(F)cc1)c1ccc2ccccc2n1	inconclusive: 31.6 µM [inhibitor, single point]	–
